# Over roughly 18,000 sequences, “TetR repression strength (sort-seq, GFP reporter)” has its median near 0.23; the highest 2% begin near 0.68. This is one part of the list.
# Molecular target: TetR (class B, Tn10) (UniProt P04483)
# Test: TetR repression strength (sort-seq, GFP reporter) (relative to tetO2 = 1); higher = stronger repression
# Conditions: E. coli
# Outline: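 Escherichia coli SIG10-MAX cells carried a low-copy plasmid library in which eight operator positions were randomized between a constitutive promoter and sfGFP, and TetR was expressed constitutively. After 5 h of growth at 37 °C in LB with 50 µg/mL chloramphenicol, 10^6 cells were FACS-sorted into 13 fluorescence bins, and each bin was Illumina-sequenced. Repression strength was the top bin index plus one minus the read-weighted mean bin, divided by the value for the unaltered operator. Across three independent transformations, only library members with ≥30 reads in every replicate and a CV ≤0.5 were averaged.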
# UniProt P04483, sequence (P04483 whole entry): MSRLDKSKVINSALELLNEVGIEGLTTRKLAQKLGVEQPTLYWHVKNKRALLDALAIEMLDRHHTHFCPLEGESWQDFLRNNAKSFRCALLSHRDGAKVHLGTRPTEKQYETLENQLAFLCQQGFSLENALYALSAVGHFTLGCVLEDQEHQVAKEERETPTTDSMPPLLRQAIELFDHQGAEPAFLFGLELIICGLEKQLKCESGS
row,Sequence,TetR repression strength
1,TCCCGCCTAGTGGGGGAGA,0.215
2,TCCCCCTTAGTACTAGAGA,0.299
3,TCCCATAAAGTGTTAGAGA,0.283
4,TCCCTACAAGTGCCGGAGA,0.202
5,TCCCGTAGAGTTACGGAGA,0.185
6,TCCCATGTAGTTCGAGAGA,0.146
7,TCCCTCTCAGTGTGGGAGA,0.234
8,TCCCCTGAAGTTAGGGAGA,0.115
9,TCCCGTAGAGTGCTTGAGA,0.181
10,TCCCAATGAGTCTTGGAGA,0.172
11,TCCCCCTAAGTGATAGAGA,0.442
12,TCCCAGCCAGTCCGCGAGA,0.294
13,TCCCGTATAGTCAACGAGA,0.206
14,TCCCGTGTAGTCGGGGAGA,0.236
15,TCCCCCCTAGTTGGGGAGA,0.205
16,TCCCTATTAGTGAGTGAGA,0.762
17,TCCCCATCAGTGCTGGAGA,0.157
18,TCCCAATCAGTTGTTGAGA,0.243
19,TCCCGTGAAGTCACGGAGA,0.235
20,TCCCGGAAAGTTTCGGAGA,0.0395
21,TCCCTAGGAGTGTGGGAGA,0.119
22,TCCCTATCAGTATCGGAGA,0.315
23,TCCCCTATAGTTGGGGAGA,0.174
24,TCCCATCGAGTGGCCGAGA,0.201
25,TCCCTTAGAGTGTCAGAGA,0.149
26,TCCCCGAAAGTACACGAGA,0.32

row,Sequence,TetR repression strength
1,TCCCAAAGAGTTGCTGAGA,0.16
2,TCCCGTTCAGTGTTTGAGA,0.321
3,TCCCGTGGAGTCGTGGAGA,0.209
4,TCCCGGTCAGTCTGCGAGA,0.194
5,TCCCGGGGAGTGTATGAGA,0.575
6,TCCCGGACAGTGTCTGAGA,0.262
7,TCCCCGTTAGTGCCGGAGA,0.08
8,TCCCGTTGAGTCTGTGAGA,0.176
9,TCCCGGGGAGTCTAGGAGA,0.156
10,TCCCTTCTAGTTGTTGAGA,0.216
11,TCCCAGGTAGTGTGAGAGA,0.0877
12,TCCCACGGAGTTCCAGAGA,0.164
13,TCCCTTGGAGTTAAGGAGA,0.123
14,TCCCACTCAGTCGGCGAGA,0.359
15,TCCCGTGAAGTATTCGAGA,0.315
16,TCCCCGCAAGTAAGAGAGA,0.391
17,TCCCCATCAGTATTAGAGA,0.344
18,TCCCGCTCAGTTCCGGAGA,0.207
19,TCCCTGTCAGTTTCTGAGA,0.518
20,TCCCGCGGAGTACTGGAGA,0.26
21,TCCCATACAGTATTTGAGA,0.302
22,TCCCGGGTAGTGTTCGAGA,0.16
23,TCCCTTCGAGTTAAGGAGA,0.186
24,TCCCGCGCAGTTGGGGAGA,0.518
25,TCCCCACGAGTACTAGAGA,0.326
26,TCCCATTTAGTCAGTGAGA,0.108

row,Sequence,TetR repression strength
1,TCCCTTTCAGTCTGTGAGA,0.336
2,TCCCCAAGAGTTAAGGAGA,0.2
3,TCCCGTTCAGTACGCGAGA,0.912
4,TCCCGGGAAGTGCGGGAGA,0.32
5,TCCCACTAAGTTATAGAGA,0.672
6,TCCCGGTCAGTAGCGGAGA,0.0495
7,TCCCGGGGAGTTAACGAGA,0.428
8,TCCCGTTTAGTCGATGAGA,0.124
9,TCCCCCTAAGTTTACGAGA,0.42
10,TCCCTCCAAGTATCTGAGA,0.365
11,TCCCTTGAAGTATACGAGA,0.478
12,TCCCTGTCAGTTCTTGAGA,0.238
13,TCCCGTGGAGTCCGTGAGA,0.45
14,TCCCCCGGAGTCTGCGAGA,0.198
15,TCCCCCCTAGTACGTGAGA,0.814
16,TCCCGGAGAGTTGTCGAGA,0.168
17,TCCCACCAAGTGTTAGAGA,0.17
18,TCCCGATGAGTCAGCGAGA,0.0296
19,TCCCTAAGAGTATTAGAGA,0.0953
20,TCCCATCGAGTTGTGGAGA,0.415
21,TCCCGCGCAGTTGTTGAGA,0.196
22,TCCCCTCTAGTTTGGGAGA,0.415
23,TCCCGTATAGTTACTGAGA,0
24,TCCCAGCAAGTGATAGAGA,0.167
25,TCCCATTGAGTCGGAGAGA,0.13
26,TCCCAAATAGTAATCGAGA,0.221

row,Sequence,TetR repression strength
1,TCCCCCATAGTGGACGAGA,0.177
2,TCCCTTGCAGTTCGAGAGA,0.218
3,TCCCAAGGAGTGCCTGAGA,0.474
4,TCCCGGTAAGTTTTGGAGA,0.498
5,TCCCTTAAAGTAACAGAGA,0.143
6,TCCCATCTAGTAGTCGAGA,0.319
7,TCCCTTGTAGTGCACGAGA,0.0765
8,TCCCGCCTAGTCCCAGAGA,0.489
9,TCCCGCTGAGTTGTAGAGA,0.253
10,TCCCAGTGAGTACGAGAGA,0.471
11,TCCCAATTAGTGCGTGAGA,0.221
12,TCCCGAACAGTGTGGGAGA,0.178
13,TCCCGAGCAGTGTGTGAGA,0.222
14,TCCCGGGCAGTTGAGGAGA,0.289
15,TCCCTCGAAGTTTATGAGA,0.191
16,TCCCAAAAAGTAGGTGAGA,0.207
17,TCCCCCATAGTCCTCGAGA,0.412
18,TCCCCTTGAGTGTGTGAGA,0.178
19,TCCCTTACAGTCCACGAGA,0.808
20,TCCCAGTTAGTACGTGAGA,0.264
21,TCCCGTTTAGTGCCAGAGA,0.0562
22,TCCCTATAAGTCAGAGAGA,0.335
23,TCCCTCAAAGTGACTGAGA,0.185
24,TCCCATTGAGTTACAGAGA,0.118
25,TCCCGGTGAGTCTAGGAGA,0.164
26,TCCCGAAGAGTTCCTGAGA,0.501

row,Sequence,TetR repression strength
1,TCCCTGTTAGTTGTCGAGA,0.341
2,TCCCGAGAAGTGGGCGAGA,0.263
3,TCCCTCGTAGTGTTTGAGA,0.362
4,TCCCGGGAAGTGTGGGAGA,0.184
5,TCCCCGCCAGTTATGGAGA,0.191
6,TCCCGTTCAGTGATAGAGA,0.819
7,TCCCTGCTAGTGTGGGAGA,0.23
8,TCCCCATCAGTGATGGAGA,0.399
9,TCCCATGAAGTTGCGGAGA,0.104
10,TCCCTGGGAGTCTGTGAGA,0.158
11,TCCCGGCCAGTTCGTGAGA,0.197
12,TCCCTTGGAGTCATGGAGA,0.307
13,TCCCTATCAGTGGGGGAGA,0.378
14,TCCCCGTGAGTCACGGAGA,0.232
15,TCCCACCCAGTGGTCGAGA,0.255
16,TCCCCTCCAGTGAGGGAGA,0.351
17,TCCCTGAAAGTGGGCGAGA,0.202
18,TCCCATCCAGTTATTGAGA,0.23
19,TCCCCGGAAGTGAGAGAGA,0.255
20,TCCCGTTTAGTTATTGAGA,0.661
21,TCCCTTGCAGTCAGAGAGA,0.184
22,TCCCAAGTAGTGACGGAGA,0.0549
23,TCCCTGGGAGTGCGGGAGA,0.144
24,TCCCTGGGAGTATACGAGA,0.134
25,TCCCCGTTAGTCAGAGAGA,0.49
26,TCCCCGCGAGTCATTGAGA,0.44

row,Sequence,TetR repression strength
1,TCCCGACTAGTGACTGAGA,0.579
2,TCCCGTGAAGTCGTGGAGA,0.259
3,TCCCCGCTAGTTCATGAGA,0.255
4,TCCCGCGAAGTCAGGGAGA,0.13
5,TCCCGATAAGTGTCCGAGA,0.142
6,TCCCTTATAGTCGGTGAGA,0.104
7,TCCCTCATAGTCTGTGAGA,0.387
8,TCCCCGCGAGTGGCCGAGA,0.543
9,TCCCCATTAGTGAAAGAGA,0.415
10,TCCCCTACAGTTAGGGAGA,0.214
11,TCCCCTCCAGTTACAGAGA,0.421
12,TCCCTGGAAGTAGACGAGA,0.0579
13,TCCCCATGAGTCTGGGAGA,0.22
14,TCCCTCAAAGTTAGGGAGA,0.162
15,TCCCTCTCAGTGGTAGAGA,0.424
16,TCCCCTTGAGTTGAGGAGA,0.707
17,TCCCCTCTAGTGTATGAGA,0.327
18,TCCCGTCCAGTCGGCGAGA,0.216
19,TCCCTGTCAGTGTCTGAGA,0.328
20,TCCCGGCCAGTGGTGGAGA,0.568
21,TCCCTAACAGTAAGGGAGA,0.118
22,TCCCGTCGAGTATGCGAGA,0.373
23,TCCCGCGAAGTTGGGGAGA,0.569
24,TCCCCTAAAGTATATGAGA,0.28
25,TCCCGGGTAGTGTAAGAGA,0.146
26,TCCCAGTTAGTAATTGAGA,0.0467

row,Sequence,TetR repression strength
1,TCCCGACTAGTGACAGAGA,0.674
2,TCCCCACGAGTTGGTGAGA,0.111
3,TCCCAGGTAGTTTTTGAGA,0.307
4,TCCCAAAAAGTGACAGAGA,0.627
5,TCCCCGTCAGTTGTCGAGA,0.195
6,TCCCCAGCAGTCGATGAGA,0.259
7,TCCCGGTTAGTAGTCGAGA,0.147
8,TCCCGATTAGTGGAAGAGA,0.471
9,TCCCGAGCAGTGTTAGAGA,0.4
10,TCCCGAGCAGTGAGAGAGA,0.689
11,TCCCGCAAAGTCCTGGAGA,0.518
12,TCCCGGTCAGTTGTCGAGA,0.321
13,TCCCAAGGAGTTGCGGAGA,0.222
14,TCCCTGCCAGTATAGGAGA,0.308
15,TCCCCGCGAGTTCGAGAGA,0.199
16,TCCCCAACAGTTACAGAGA,0.319
17,TCCCTTTAAGTTGACGAGA,0.338
18,TCCCGTAGAGTTGAGGAGA,0.25
19,TCCCAAGAAGTGTACGAGA,0.181
20,TCCCTAAGAGTTGTCGAGA,0.185
21,TCCCGGATAGTACGAGAGA,0.187
22,TCCCTCGCAGTGCTTGAGA,0.215
23,TCCCATGCAGTGGGCGAGA,0.171
24,TCCCGTTGAGTGGAAGAGA,0.215
25,TCCCGATAAGTCAGTGAGA,0.747
26,TCCCCGTCAGTCAGCGAGA,0.203

row,Sequence,TetR repression strength
1,TCCCCGGCAGTGTGCGAGA,0.0971
2,TCCCTATGAGTGAGGGAGA,0.156
3,TCCCATTGAGTTCGAGAGA,0.29
4,TCCCCGTCAGTTAGAGAGA,0.187
5,TCCCATTGAGTCCGGGAGA,0.0605
6,TCCCCAAGAGTAAATGAGA,0.368
7,TCCCAGTCAGTGCCCGAGA,0.242
8,TCCCTGTCAGTAAGCGAGA,0.305
9,TCCCTAAAAGTTAGGGAGA,0.129
10,TCCCTTCCAGTTGGGGAGA,0.123
11,TCCCTTCAAGTAGCGGAGA,0.365
12,TCCCTCGCAGTATTGGAGA,0.259
13,TCCCCCAAAGTGGATGAGA,0.055
14,TCCCGCAGAGTGTAGGAGA,0.191
15,TCCCTGGAAGTTCGAGAGA,0.0284
16,TCCCATGCAGTGGTGGAGA,0.114
17,TCCCCTATAGTTGTGGAGA,0.0257
18,TCCCTGGCAGTTAAAGAGA,0.155
19,TCCCCATAAGTTTTTGAGA,0.454
20,TCCCTATGAGTATCGGAGA,0.0209
21,TCCCTTGGAGTGAATGAGA,0.15
22,TCCCTGGCAGTACTTGAGA,0.109
